Measured values: publication PMC7819943, “Rice protein-binding microarrays: a tool to detect cis-acting elements near promoter regions in rice”
Some of the results follow.

Each sequence was assayed against T1, OsWOX13 (Oryza sativa, UniProt Q5QMM3 1-267) (assay: protein-binding microarray (RPBM); PBS, 2% BSA, 51.3 ng/ul salmon testes DNA, 50 uM zinc acetate, 200 nM TF, 25 C, 1 h; high values mean tight binding). Conditions: protein: recombinant; tags: N-terminal polyhistidine and DsRed monomer fusion (pET32a); label: CyDye5-dUTP incorporated in the synthesized complementary strand; 3' TTTTT single-stranded linker to array surface; dsDNA, one strand shown.
T1 sequence: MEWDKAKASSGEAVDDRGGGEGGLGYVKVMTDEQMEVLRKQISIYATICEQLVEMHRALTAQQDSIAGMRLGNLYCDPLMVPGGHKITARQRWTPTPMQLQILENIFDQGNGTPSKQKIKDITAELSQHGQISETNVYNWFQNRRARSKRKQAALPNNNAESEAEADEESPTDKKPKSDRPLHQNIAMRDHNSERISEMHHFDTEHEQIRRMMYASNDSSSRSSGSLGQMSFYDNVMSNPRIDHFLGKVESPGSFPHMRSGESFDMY
Outline: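 Binding signal here means per-feature fluorescence intensity in arbitrary units. The values were read on an Axon 4000B scanner after a custom Agilent array, double-stranded by primer extension with Cy5-dUTP, was incubated with 200 nM protein at 25 °C for 1 h in PBS with 2% BSA, salmon testes DNA and 50 µM zinc acetate, then washed. The proteins were transcription factors with an N-terminal polyhistidine tag and DsRed, expressed in E. coli BL21-CodonPlus and purified on Ni–NTA.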
In the case of “GTACACTTCTCAAATCAATCATAAATCCAATTTGCACATACGGAGTCACCTAGTGCAG”, the binding signal was 10600 fluorescence intensity (a.u.).
For “GATAATCACTGTAATTAAAGTCAGTTAATTGGTTTGAATCCGGAGTCACCTAGTGCAG”, the binding signal was 44100 fluorescence intensity (a.u.).
“TACATTACAGCTATGTAATTACTGTACTTCATTGGATGGTCGGAGTCACCTAGTGCAG” was tested, and the binding signal was 3960 fluorescence intensity (a.u.).
“TAAAGAAATTGAAACGGTGTGATGGAAAAGTTGAAAGTTTCGGAGTCACCTAGTGCAG” was tested, and the binding signal was 6700 fluorescence intensity (a.u.).
In the case of “GCAGTGACAGCCGGCGCTAATCATGCCGTCAAGCTGCCCTCGGAGTCACCTAGTGCAG”, the binding signal was 3880 fluorescence intensity (a.u.).
In the case of “AAAGAATTAAATTGCCAAGTTGGGCCCCAAAGCACACGGACGGAGTCACCTAGTGCAG”, the binding signal was 7900 fluorescence intensity (a.u.).
For “GTTGATTTACTGAATTTGGTGTGACAAGTGAAGCATGAGGCGGAGTCACCTAGTGCAG”, the binding signal was 32000 fluorescence intensity (a.u.).
With “GTAAAATTGGTTCGAAATGTGAGGTGAATATATATATGTCCGGAGTCACCTAGTGCAG” the binding signal was 5270 fluorescence intensity (a.u.).
“CATTGACAAACTCGATCAATGACATATTATGTATAGAGCACGGAGTCACCTAGTGCAG” was tested, and the binding signal was 10500 fluorescence intensity (a.u.).
In the case of “AGGGGAAGATAATTAATAGACTTGCCGGAGTTAGCACGGCCGGAGTCACCTAGTGCAG”, the binding signal was 9550 fluorescence intensity (a.u.).
For “ATGATCAATTTGTCAAAATTACGGGATTTTAATTTCGTGGCGGAGTCACCTAGTGCAG”, the binding signal was 30500 fluorescence intensity (a.u.).
“GTGAAGCCAAACAATTAAATTTAAATTTCTCATCTCGTCACGGAGTCACCTAGTGCAG” was tested, and the binding signal was 5130 fluorescence intensity (a.u.).
With “TGGTCTCTTGAGGATAATTGGTAGAATAACCTGACACTGTCGGAGTCACCTAGTGCAG” the binding signal was 3330 fluorescence intensity (a.u.).
In the case of “ATTAATTGGTCCACGCCTTTTCACGTGCCTCTTGCCGCACCGGAGTCACCTAGTGCAG”, the binding signal was 25800 fluorescence intensity (a.u.).
“TTCTGATTACGCGGCGAAACCGCTCGCGCCATGGCGGTTGCGGAGTCACCTAGTGCAG” was tested, and the binding signal was 5460 fluorescence intensity (a.u.).
For “TACCAGTATATATCAATCAGGTCAATTATGTTGCAACATCCGGAGTCACCTAGTGCAG”, the binding signal was 23700 fluorescence intensity (a.u.).
In the case of “CGCCATCAATCACCATCTACACCTCTAGAGAGCTAATTAACGGAGTCACCTAGTGCAG”, the binding signal was 19800 fluorescence intensity (a.u.).
“GTCATCAATGATTCAGTGTTAACTACTCCATTTCTAGAAACGGAGTCACCTAGTGCAG” was tested, and the binding signal was 3880 fluorescence intensity (a.u.).
In the case of “TAAAATTAAGCTCCAAATAAACTATATAAAATTATGTATTCGGAGTCACCTAGTGCAG”, the binding signal was 4090 fluorescence intensity (a.u.).
For “GAGATCTATTGATTGATTTTGAAGCAGAGGAGGAGCAGAGCGGAGTCACCTAGTGCAG”, the binding signal was 26300 fluorescence intensity (a.u.).
For “GATGATTAACGAGTCACTGTTACTACTACTTTCCCACCCTCGGAGTCACCTAGTGCAG”, the binding signal was 41200 fluorescence intensity (a.u.).
With “TTGATTTAAAGGATTGAAGCTTTCCAAATCCTATAAAATTCGGAGTCACCTAGTGCAG” the binding signal was 5970 fluorescence intensity (a.u.).
“CGAGATAAATCACGGTAATCACAGCAACAGCAACAGCAACCGGAGTCACCTAGTGCAG” was tested, and the binding signal was 10400 fluorescence intensity (a.u.).
For “TAATACTATTTGATTAATCATGCGTTCATCCACCACTCCACGGAGTCACCTAGTGCAG”, the binding signal was 11100 fluorescence intensity (a.u.).
“GTAACTGAGTCAATCCAGCAACGCATTGACCATATGAGCTCGGAGTCACCTAGTGCAG” was tested, and the binding signal was 4780 fluorescence intensity (a.u.).
For “TTTTATAATGATACTTAATTAATCATGTGCTAATAATCACCGGAGTCACCTAGTGCAG”, the binding signal was 9330 fluorescence intensity (a.u.).
In the case of “ATATATATATATATATATATATATATAAAACTGGATATAACGGAGTCACCTAGTGCAG”, the binding signal was 15900 fluorescence intensity (a.u.).
With “ATTAAATTTTAAAATTTAATTTTAAATTGATTTTGATATTCGGAGTCACCTAGTGCAG” the binding signal was 42600 fluorescence intensity (a.u.).
For “AAATATAAATAATTTTGGATGGATGAGACGTATCCTAATTCGGAGTCACCTAGTGCAG”, the binding signal was 3240 fluorescence intensity (a.u.).
With “TCTCCCTGATTGGTGGTGTTTGTTTGAAAAGAAAGTTTATCGGAGTCACCTAGTGCAG” the binding signal was 24100 fluorescence intensity (a.u.).
In the case of “GGGGATTGATTCCTTCCAAATCAAACCACCAAACCATCTTCGGAGTCACCTAGTGCAG”, the binding signal was 25600 fluorescence intensity (a.u.).
With “AATTGATTGTGTCACAGTATATATTATAGTGAGGGGTGGGCGGAGTCACCTAGTGCAG” the binding signal was 24500 fluorescence intensity (a.u.).
“ATGAAATTGTGTAACTTCCTGCTGCCTATTCCATACAAATCGGAGTCACCTAGTGCAG” was tested, and the binding signal was 3250 fluorescence intensity (a.u.).
In the case of “AATAATTAAACAGTTTTGTCTTGACATATATACTAGCATACGGAGTCACCTAGTGCAG”, the binding signal was 34400 fluorescence intensity (a.u.).
With “AAATGATTTTAACATGTGGGATAAGCAAAGGGAATGATTTCGGAGTCACCTAGTGCAG” the binding signal was 6840 fluorescence intensity (a.u.).
“TGATAGTGTCAATCACCGGCCGGCGAAATCTCTTTGCCGGCGGAGTCACCTAGTGCAG” was tested, and the binding signal was 17900 fluorescence intensity (a.u.).
In the case of “CTTTGATTATGCCAAGAAGAACTCCGATTATATACTACTCCGGAGTCACCTAGTGCAG”, the binding signal was 15500 fluorescence intensity (a.u.).
With “CAGAAATTTGTAATTCATAAATAAGAAATCGTACCAGCTACGGAGTCACCTAGTGCAG” the binding signal was 9880 fluorescence intensity (a.u.).
For “AATAATAAACCGAATACTGATTTGGTTCCGGAACCCAAACCGGAGTCACCTAGTGCAG”, the binding signal was 3160 fluorescence intensity (a.u.).
With “AATCAATCTGGTGGTCCAGTTAAAGGTTTACAGGCAGGTGCGGAGTCACCTAGTGCAG” the binding signal was 5790 fluorescence intensity (a.u.).
“GTTTGGATTTGATTGGAGATTCGTGCGCGTGTAGAATAGACGGAGTCACCTAGTGCAG” was tested, and the binding signal was 25100 fluorescence intensity (a.u.).
For “TTCATGCGTAATTGCAATCTTATGCTGGTAAGATGCATGACGGAGTCACCTAGTGCAG”, the binding signal was 23300 fluorescence intensity (a.u.).
